Test results from PubChem BioAssay AID720536 (National Center for Advancing Translational Sciences (NCATS), 2013).
Out of some 1,600 compounds screened, about 650 (41%) were called active. The set was probably picked from earlier hits. This list was built around the results that the source calls inconclusive (neither active nor inactive); the mix of calls is not that of the screen. The call rests on the fitted dose curve; in most records, active means well fitted inhibition curve with a large enough effect; inconclusive means small, poorly fitted or top-dose-only effect; inactive means no such curve, though single readings can be large or run the other way. No potency is given beside an inconclusive call; the fits are too rough.

Assay: qHTS for Inhibitors of TGF-b: CCL64 Cells Orthogonal Assay for Cherry Picks; further: nearly all actives have a fitted effect of over 65% in size;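 on activity, negative = inhibition: 0% = stimulated DMSO wells and full inhibition = unstimulated wells without TGF-beta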
Conditions: CCL64 CAGA-GFP reporter, TGF-b stimulated, GFP fluorescence, 18 h; activity, negative = inhibition: at 46.1 µM (top of the series)
In short: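 CCL64 cells carrying a CAGA-GFP reporter (1000/well, DMEM with 1% FBS) were pre-incubated 2 h at 37 degrees C, given compound, then stimulated with 500 pg/mL TGF-beta for 18 h. Per-cell GFP fluorescence was summed per well.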
Potency means the concentration at half of the fitted maximal effect; tags describe the fitted curve by direction and shape.

| SMILES | Potency | activity, negative = inhibition |
| --- | --- | --- |
| O=C(Nc1cc(Sc2ccccn2)cc([N+](=O)[O-])c1)c1ccc(Cl)cc1 | active: 10.3 µM | – |
| COc1ccccc1CCC(=O)N(C)CC(=O)Nc1ccc(Cl)c(C(F)(F)F)c1 | inconclusive [inhibitor, partial curve, poor fit] | – |
| O=C(Nc1csc([N+](=O)[O-])c1)Nc1ccccc1Cl | inconclusive [inhibitor, single point] | – |
| O=C(COc1cccc(F)c1)N[C@@H](Cc1ccccc1)c1nc2ccccc2[nH]1 | – | inactive: -12.8% |
| CCOc1ccc2nc3cc(NCc4ccc(OC)cc4)ccc3c(N)c2c1 | inconclusive [inhibitor, single point] | – |
| Cc1ccc(C(=O)Nc2cccc3[nH]c(C(F)(F)F)nc23)cc1 | inconclusive [inhibitor, single point] | – |
| O=C(Oc1c(Cl)cc(Cl)c2cccnc12)c1cccs1 | inconclusive [inhibitor, single point] | – |
| COc1ccc(NC(=O)c2c(Nc3ccccc3)sc(C(=O)c3ccc(F)cc3)c2N)cc1 | inconclusive [inhibitor, single point] | – |
| Cc1ccc(NC(=O)Cc2ccccc2F)cc1S(=O)(=O)N1CCCCCC1 | – | inactive: -22.8% |
| Cc1[nH]n(-c2ccccc2)c(=S)c1C=NCCCN=Cc1c(C)[nH]n(-c2ccccc2)c1=S | – | inactive: -18.3% |
| COc1ccc(-c2nnn(CC(=O)N3CCN(c4ccccc4OC)CC3)n2)cc1 | inconclusive [inhibitor, single point] | – |
| C=CCn1c(COc2ccccc2F)nnc1SCC(=O)Nc1cc2oc3ccccc3c2cc1OC | inconclusive [inhibitor, partial curve, poor fit] | – |
| Cc1cc(S(=O)(=O)N2CCN(CC(=O)NCCc3cccs3)CC2)ccc1Br | – | inactive: -9.91% |
| Cc1ccc2nc(N3CCN(C(=O)c4ccc(F)cc4)CC3)c(C#N)cc2c1 | inconclusive [inhibitor, single point] | – |
| COc1ccc(C(NC(=O)C2CCN(CCOc3ccc(Cl)cc3Cl)CC2)c2cccs2)cc1 (stereo unspecified) | inconclusive [inhibitor, single point] | – |
| CC(=O)Nc1ccc(SC[C@H](Cc2ccccc2)N2CC[C@@H](C(C)(C)C)CCC2=O)cc1 | inconclusive [inhibitor, single point] | – |
| Clc1cccc(Cc2c(-c3cccc(Cl)c3)nc3ccc(Cl)cn23)c1 | inconclusive [inhibitor, partial curve, poor fit] | – |
| O=C(NC1CCCCC1)C(c1cccnc1)N(C(=O)CCl)c1cccc(Cl)c1 (stereo unspecified) | active: 4.61 µM | – |
| CCc1ccc(NC(=O)COc2ccc(/C=C(/C#N)c3nc4ccccc4[nH]3)cc2OC)cc1 | – | inactive: 13.8% |
| S=C(NCc1ccco1)Nc1ccc(Oc2ccc(Cl)cc2)cc1 | inconclusive [inhibitor, single point] | – |
| COC(=O)N/N=C/c1cn(CCOc2ccccc2)c2ccccc12 | – | inactive: -4.9% |

| SMILES | Potency | activity, negative = inhibition |
| --- | --- | --- |
| Cc1cccc(N2CCN(C(=O)c3c(C)nn(Cc4ccccc4Cl)c3C)CC2)c1C | inconclusive [inhibitor, single point] | – |
| O=C1OCCN1C(=O)[C@H]1[C@H](c2ccccc2)C(c2cccc(Cl)c2)=NN1c1ccc(Br)cc1 | – | inactive: 22.7% |
| CCCCNc1c(-c2ccc(OC)c(SC(C)CC)c2)nc2ccc(Cl)cn12 (stereo unspecified) | inconclusive [inhibitor, single point] | – |
| Cc1cc(NC(=O)CS(=O)(=O)c2cn(Cc3cccc(Cl)c3)c3ccccc23)no1 | – | inactive: -23.3% |
| COc1ccc(CN2C[C@H]3CCCN3c3cc(Br)ccc3S2(=O)=O)cc1 | inconclusive [inhibitor, partial curve, poor fit] | – |
| O=C(CCN1CCOCC1)c1ccc2c(c1)OCCO2 | inconclusive [inhibitor, single point] | – |
| COc1ccc(C)cc1NC(=O)c1ccccc1NS(=O)(=O)c1ccc(Cl)s1 | active: 6.51 µM | – |
| Clc1ccc2c(NCc3ccccn3)ccnc2c1 | active: 8.2 µM | – |
| CS(=O)(=O)N1CCN(c2ccc(NC(=O)c3ccc([N+](=O)[O-])o3)cc2)CC1 | inconclusive [inhibitor, partial curve, poor fit] | – |
| O=C(NCCc1cccnc1)c1cc(COc2ccc(F)cc2Cl)on1 | inconclusive [inhibitor, single point] | – |
| CCC1Nc2ncnc(N3CCc4ccccc4C3)c2N(Cc2ccc(Br)cc2)C1=O (stereo unspecified) | – | inactive: -80.9% |
| CCCCC(=O)NC(c1cccc([N+](=O)[O-])c1)c1ccc2cccnc2c1O (stereo unspecified) | inconclusive [inhibitor, partial curve, poor fit] | – |
| COc1ccc(-c2cn[nH]c2-c2ccc(OCc3ccc([N+](=O)[O-])cc3)cc2O)cc1OC | inconclusive [inhibitor, single point] | – |
| CC(C)C[C@H]1CNC(=S)N1C[C@H]1CCCN1C[C@H](Cc1ccccc1)N1C[C@H](Cc2ccc(O)cc2)N(CCc2ccccc2)C1=S | inconclusive [inhibitor, single point] | – |
| FC(F)Oc1ccc(NC(=S)NC23CC4CC(CC(C4)C2)C3)cc1 | inconclusive [inhibitor, single point] | – |
| COc1ccccc1N1CCN(C(=O)c2ccc(-c3ccc(Cl)cc3)o2)CC1 | inconclusive [inhibitor, single point] | – |
| O=C(c1c[nH]c(C(=O)N2CCN(c3ccccc3F)CC2)c1)c1cccc(Cl)c1Cl | inconclusive [inhibitor, single point] | – |
| C(=C\c1ccccc1)/CN1CCN(C(c2nnnn2C2CCCC2)C2CC2)CC1 (stereo unspecified) | – | inactive: -15.4% |
| Cc1cc(N2CCN(C)CC2)ccc1NC(=O)c1c2c(nc3ccccc13)CCN(Cc1ccccc1)C2 | active: 8.2 µM | – |
| Cc1ccc(NC(=O)COC(=O)C2(c3ccc(Cl)cc3)CCCC2)cc1 | inconclusive [inhibitor, single point] | – |
